From publication PMC6919601, “Identification of Plasmodium dipeptidyl aminopeptidase allosteric inhibitors by high throughput screening” (PLoS ONE, 2019)
About 230 (0.21%) of roughly 110,000 compounds showed an effect of 50% or more. Some of the results follow.

Each molecule was assayed against DPAP1 (Plasmodium falciparum, UniProt Q8IIJ9) (assay: primary screen, percent inhibition; read by cleavage of a fluorogenic dipeptide substrate; higher = more effect of the substance).
Set-up: species or system P. falciparum D10 trophozoite lysates; single well
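Further: 30 min substrate incubation versus DMSO and 10 µM JCP410 controls.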

Chain of DPAP1 (Q8IIJ9 whole entry, looked up): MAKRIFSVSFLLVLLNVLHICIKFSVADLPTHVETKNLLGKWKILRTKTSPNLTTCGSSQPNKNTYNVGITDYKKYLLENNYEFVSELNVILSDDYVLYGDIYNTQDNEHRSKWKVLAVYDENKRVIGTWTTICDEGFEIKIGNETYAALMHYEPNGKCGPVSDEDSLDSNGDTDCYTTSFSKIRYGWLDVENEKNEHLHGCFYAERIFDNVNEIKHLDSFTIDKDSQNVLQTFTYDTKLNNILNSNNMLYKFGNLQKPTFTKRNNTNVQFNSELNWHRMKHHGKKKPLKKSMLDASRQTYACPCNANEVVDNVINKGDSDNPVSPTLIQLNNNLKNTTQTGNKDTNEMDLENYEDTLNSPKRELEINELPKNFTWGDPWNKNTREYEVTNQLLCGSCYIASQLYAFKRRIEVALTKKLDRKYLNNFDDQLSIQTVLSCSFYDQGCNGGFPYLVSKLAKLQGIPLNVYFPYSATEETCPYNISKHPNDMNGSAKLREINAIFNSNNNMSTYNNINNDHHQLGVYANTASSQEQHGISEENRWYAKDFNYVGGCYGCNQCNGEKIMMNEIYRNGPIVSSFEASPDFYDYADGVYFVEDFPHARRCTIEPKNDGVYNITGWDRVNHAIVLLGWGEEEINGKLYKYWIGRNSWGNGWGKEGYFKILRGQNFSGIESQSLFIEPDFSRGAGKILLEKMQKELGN

Q: Which “% Inhibition @ 10 uM” value does the source give for `C=CCSc1ncccc1C(=O)NCCc1ccccc1` here?
A: -2.26%

Q: For `N#C/C(=C\c1ccc(Cl)cc1)c1nc(-c2ccccc2)cs1`, which “% Inhibition @ 10 uM” value is on record?
A: -3.79%

Q: Which “% Inhibition @ 10 uM” value does the source give for `COCCNc1nc2c(c(=O)n(C)c(=O)n2C)n1Cc1cc(OC)ccc1Cl` here?
A: 0.248%

Q: With `COc1ccc(S(=O)(=O)Nc2ccc(C)c(O)c2)cc1` as the molecule, how does the “% Inhibition @ 10 uM” value read?
A: -1.11%

Q: Which “% Inhibition @ 10 uM” value does the source give for `CN1CCN(C(=O)CSc2nc3c(c(C(F)(F)F)n2)CCc2ccccc2-3)CC1` here?
A: 4.93%

Q: For `COc1ccc(CN(C)CCN(C)C)cc1C`, which “% Inhibition @ 10 uM” value is on record?
A: -3.04%

Q: For `CCOc1cccc(-c2nnc(SCC(=O)C34CC5CC(CC(C5)C3)C4)n2C)c1`, which “% Inhibition @ 10 uM” value is on record?
A: -3.34%

Q: Which “% Inhibition @ 10 uM” value does the source give for `COC(=O)Cn1c2c(c3cc(C)ccc31)CCCC2` here?
A: -1.82%

Q: For `COc1ccc(NC(=O)c2sc3nc(-c4cccs4)ccc3c2N)c(C)c1`, which “% Inhibition @ 10 uM” value is on record?
A: 3.53%

Q: `O=C(c1cc2c(s1)-c1ccccc1OC2)N1CCOCC1` was tested. Which “% Inhibition @ 10 uM” value did it give?
A: -3.08%

Q: How did the “% Inhibition @ 10 uM” value turn out when `CCOC(=O)c1c(NC(=O)c2cncc(Br)c2)sc2c1CCC2` was run?
A: 1.58%

Q: `CCC(C)(Nc1ccccc1)c1nnnn1C(/C=C\c1ccc(Cl)cc1Cl)C(C)(C)C` (stereo not shown) was tested. Which “% Inhibition @ 10 uM” value did it give?
A: 2.59%

Q: Which “% Inhibition @ 10 uM” value does the source give for `CCCN(CCC)CCNC(=O)c1nn(C)c2c1CSc1ccccc1-2` here?
A: 1.68%

Q: How did the “% Inhibition @ 10 uM” value turn out when `C(#Cc1ccc(C#CCN2CCOCC2)cc1)CN1CCOCC1` was run?
A: -2.77%

Q: For `COCCCNC(=O)CS(=O)Cc1nc(-c2ccc(C)cc2)oc1C` (stereo not shown), which “% Inhibition @ 10 uM” value is on record?
A: -1.05%

Q: `C/N=C1\S/C(=C/c2cc3c(cc2OC)OCO3)C(=O)N1C` was tested. Which “% Inhibition @ 10 uM” value did it give?
A: -3.29%

Q: How did the “% Inhibition @ 10 uM” value turn out when `O=C1c2cccc3cccc(c23)C(=O)N1CC(=O)N1CCCc2ccccc21` was run?
A: -5.13%

Q: How did the “% Inhibition @ 10 uM” value turn out when `COc1cccc(-c2nn(C)c3sc(C(=O)NC4CCCCC4)cc23)c1` was run?
A: 1.23%

Q: With `COc1cc(C2C(C#N)=C(n3cccc3)OC3=C2C(=O)CC(C)(C)C3)ccc1O` (stereo not shown) as the molecule, how does the “% Inhibition @ 10 uM” value read?
A: -1.85%

Q: `COc1ccccc1CNC(=O)CCNS(=O)(=O)c1cccc2nonc12` was tested. Which “% Inhibition @ 10 uM” value did it give?
A: 5.85%

Q: `CCN(CC)CCCN1C(=O)C2C3C=CC(C2C1=O)C1C2C(=O)N(CCCN(CC)CC)C(=O)C2C31` (stereo not shown) was tested. Which “% Inhibition @ 10 uM” value did it give?
A: 1.05%

Q: `Cc1c(Cl)cccc1NS(=O)(=O)c1ccc(F)cc1` was tested. Which “% Inhibition @ 10 uM” value did it give?
A: 2.22%

Q: `O=C(Cc1ccccc1)Nc1ccncc1` was tested. Which “% Inhibition @ 10 uM” value did it give?
A: -3.27%

Q: For `Cc1ccc(NC(=O)c2cccnc2Cl)cc1Cl`, which “% Inhibition @ 10 uM” value is on record?
A: -5.98%

Q: With `CC(C)NC(=O)C(C)n1cccc1C(=O)c1ccccc1` (stereo not shown) as the molecule, how does the “% Inhibition @ 10 uM” value read?
A: 1.15%

Q: For `COc1cc(/C=C\C(=O)Nc2c3c(nn2-c2ccc(F)cc2)CS(=O)(=O)C3)cc(OC)c1OC`, which “% Inhibition @ 10 uM” value is on record?
A: 5.07%

Q: `CS(=O)(=O)N(CC(=O)NCc1ccncc1)c1cccc(F)c1` was tested. Which “% Inhibition @ 10 uM” value did it give?
A: 39.3%

Q: For `CCN(CC)c1ncnc2c1c(-c1ccccc1)cn2-c1ccccc1`, which “% Inhibition @ 10 uM” value is on record?
A: -1.62%

Q: With `CCOc1ccc(C(=O)N2CCC(Cc3ccccc3)CC2)cc1` as the molecule, how does the “% Inhibition @ 10 uM” value read?
A: -1.04%

Q: `CCc1nc2cccnc2n1-c1ccc(CC(=O)N2CCN(Cc3ccccc3)CC2)cc1` was tested. Which “% Inhibition @ 10 uM” value did it give?
A: 11.1%

Q: Which “% Inhibition @ 10 uM” value does the source give for `CCN1CCN(C(c2cccs2)C(C)NC(=O)CC(C)C)CC1` (stereo not shown) here?
A: 2.34%

Q: `COc1ccc(-n2c(C)cc(/C=C3/C(=N)N4OC(C)=CC4=NC3=O)c2C)cc1` was tested. Which “% Inhibition @ 10 uM” value did it give?
A: 3.43%

Q: Which “% Inhibition @ 10 uM” value does the source give for `Sc1nnc(-c2ccco2)n1C1CCCCC1` here?
A: 5.75%

Q: How did the “% Inhibition @ 10 uM” value turn out when `COc1cccc(CNC(=O)Cn2sc3ccccc3c2=O)c1OC` was run?
A: -8.41%

Q: Which “% Inhibition @ 10 uM” value does the source give for `COc1ccc(OC)c(NC(=O)CN(c2ccc(OC)c(Cl)c2)S(C)(=O)=O)c1` here?
A: -1.43%

Q: For `Cc1ccc(NC(=O)C(Cc2ccc([N+](=O)[O-])cc2)N2C(=O)c3ccccc3C2=O)c(O)c1` (stereo not shown), which “% Inhibition @ 10 uM” value is on record?
A: 0.937%

Q: For `O=C(CCn1cc(Br)cn1)N1CCN(C2C3CC4CC(C3)CC2C4)CC1` (stereo not shown), which “% Inhibition @ 10 uM” value is on record?
A: -3.71%

Q: For `CC1CCN(S(=O)(=O)c2ccc3c(ccn3CC(=O)NCC(C)c3ccccc3)c2)CC1` (stereo not shown), which “% Inhibition @ 10 uM” value is on record?
A: 1.74%

Q: With `Cn1c2ccccc2c2cnn(CC(=O)N3CCN(C4CCCCC4)CC3)c(=O)c21` as the molecule, how does the “% Inhibition @ 10 uM” value read?
A: 2.99%

Q: `CN1CCN(C(=O)C(c2ccccc2)c2ccccc2)CC1` was tested. Which “% Inhibition @ 10 uM” value did it give?
A: -0.261%

Q: For `O=C(O)c1ccc2c(c1)[C@@H]1C=CC[C@@H]1[C@H](c1c(F)cccc1Cl)N2`, which “% Inhibition @ 10 uM” value is on record?
A: 4.83%

Q: How did the “% Inhibition @ 10 uM” value turn out when `COc1ccc(CCNC(=O)Cc2c(C)c3cc(Cl)c(O)cc3oc2=O)cc1` was run?
A: -2.57%

Q: Which “% Inhibition @ 10 uM” value does the source give for `Cc1[nH]c2ccccc2c1SCC(=O)O` here?
A: 3.82%

Q: For `c1ccc2c(CCNC3CCCCCCC3)c[nH]c2c1`, which “% Inhibition @ 10 uM” value is on record?
A: -0.414%

Q: Which “% Inhibition @ 10 uM” value does the source give for `COC(=O)C1=C(C)NC(=O)NC1c1ccc(Cl)cc1Cl` (stereo not shown) here?
A: -1.82%

Q: Which “% Inhibition @ 10 uM” value does the source give for `COc1ccc(O)c(/C=C/C(=O)c2c(O)cc(C)oc2=O)c1` here?
A: -4.01%

Q: How did the “% Inhibition @ 10 uM” value turn out when `Cc1nnc(N2CCC(C(=O)NCCc3cccs3)CC2)c2nn(-c3ccc(Cl)cc3)c(C)c12` was run?
A: 9.64%

Q: With `Nc1c(Cl)cc2c(c1Oc1ccccc1)C(=O)c1ccccc1C2=O` as the molecule, how does the “% Inhibition @ 10 uM” value read?
A: -0.233%

Q: How did the “% Inhibition @ 10 uM” value turn out when `CCOC(=O)C1=C(c2ccccc2)N(C)C(=O)NC1c1c(F)cccc1Cl` (stereo not shown) was run?
A: 0.146%

Q: `CCOc1cc2c(cc1OCC)C(c1cc(OC)c(OC)cc1OC)NCC2` (stereo not shown) was tested. Which “% Inhibition @ 10 uM” value did it give?
A: -2.74%

Q: For `COc1ccc(Cl)cc1NS(=O)(=O)c1cc(Cl)ccc1Cl`, which “% Inhibition @ 10 uM” value is on record?
A: 3.47%

Q: With `Cc1cccc(CN(CCCN(C)C)CCCN(C)C)c1` as the molecule, how does the “% Inhibition @ 10 uM” value read?
A: 1.08%

Q: With `COc1ccc(-c2nc(C#N)c(N3CC(C)OC(C)C3)o2)cc1` (stereo not shown) as the molecule, how does the “% Inhibition @ 10 uM” value read?
A: -3.21%

Q: `CCOc1ccc(/C=C2/SC(=O)N(CC(=O)N3CCN(c4ccccc4)CC3)C2=O)cc1OC` was tested. Which “% Inhibition @ 10 uM” value did it give?
A: -5.34%

Q: With `CC(NC(=O)CCc1ccccc1)c1cc2c(cc1Cl)OCCO2` (stereo not shown) as the molecule, how does the “% Inhibition @ 10 uM” value read?
A: -6.92%

Q: With `CC(C(=O)O)c1cc(C(=O)c2ccccc2)sc1-c1ccccc1` (stereo not shown) as the molecule, how does the “% Inhibition @ 10 uM” value read?
A: 6.08%

Q: Which “% Inhibition @ 10 uM” value does the source give for `COc1ccc(C/N=C/C2=C(O)CC(C)(C)CC2=O)cc1` here?
A: -2.5%

Q: For `O=C1CCCC(=O)N1c1ccc(Oc2ccc(Cl)cc2)cc1`, which “% Inhibition @ 10 uM” value is on record?
A: 0.993%

Q: With `CC1(C)OC(=O)C(/C=N/CCO)=C(O)O1` as the molecule, how does the “% Inhibition @ 10 uM” value read?
A: 0.343%

Q: How did the “% Inhibition @ 10 uM” value turn out when `Cc1ccc(C)c(S(=O)(=O)Nc2ccc(C(=O)N3CCCC3)cc2)c1` was run?
A: -4.73%

Q: How did the “% Inhibition @ 10 uM” value turn out when `COc1ccc2c(CNC3CCCCCC3)c(C(=O)O)n(Cc3ccc(F)cc3)c2c1` was run?
A: -0.432%

Q: How did the “% Inhibition @ 10 uM” value turn out when `COC(=O)c1sc2nc(C)cc(C)c2c1N` was run?
A: -1.38%

Q: For `CN1C(=O)CC(C(=O)Nc2ccc(C(=O)O)cc2)S/C1=N\c1cccc(F)c1` (stereo not shown), which “% Inhibition @ 10 uM” value is on record?
A: -3.78%

Q: Which “% Inhibition @ 10 uM” value does the source give for `COc1ccc(/C=C2/SC(=O)N(CC(=O)Nc3ccccc3O)C2=O)cc1` here?
A: -16.1%
